± gives the standard deviation of the averaged measurements. The list shows a part of the results.
What follows are sequences tested on PfAP2-I AP2 domain 3 (GST-tagged) (assay: gcPBM binding intensity (ln(normalized median fluorescence intensity)); higher = stronger DNA binding).
Procedure, shortened: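 GST-tagged P. falciparum DNA-binding domains, expressed in E. coli (about 25 μg on average), were applied for 1 h to an Agilent 4 × 180k array of primer-extended double-stranded 36-bp intergenic genomic probes plus negative controls. The binding buffer was 1× PBS with 1% milk, 0.2 mg/ml BSA, 0.5% salmon testes DNA and 0.03% Triton X-100. Bound protein was detected with Alexa488 anti-GST antibody and scanned at 488 nm. Binding intensity is the highest Masliner-normalised natural-log median intensity across replicate spots of either probe orientation.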

| Sequence | gcPBM binding intensity (ln) |
| --- | --- |
| CAATTTGGGGTGTACACACACCTTATTTAAATTAAA [CACACA_site6663] | 8.02 ± 0.36 |
| TTGAACTCTCTTACGCGTACGTGTTATTATGAAAAT [XGTACX_site6265] | 7.98 ± 0.75 |
| ATGAAATATCGGAACGCACACATAAATATATTTATA [CACACA_site2670] | 8.575 ± 0.078 |
| TAGCTTATTAATATCATACACACATAGATATATTTA [CACACA_site3105] | 7.5 ± 0.54 |
| TATATATATATATGTGCATGTAATGATTCAGCATCT [TGCATGCA_site803] | 9.45 ± 0.16 |
| TTTTTTTTTTTAAATTGTACTTATTTTATATTATAT [XGTACX_site1077] | 7.95 ± 0.59 |
| ATATCTTATTTTCCTTGTACTTATTTCATAATTACA [XGTACX_site3894] | 8.09 ± 0.53 |
| TATTAAATATTGTAATGTACATATATAATATAATAT [XGTACX_site1809] | 7.82 ± 0.39 |
| AATGTCATGATACATACACACACATACACATACACA [CACACA_site8665] | 8.04 ± 0.57 |
| TAAATATGTATAAATTGTACAAAATATATGAATAGT [XGTACX_site5659] | 8.16 ± 0.49 |
| AATTTCCCATATTACACACATACTATGATATATAAA [CACACA_site3834] | 8.1 ± 0.57 |
| CAATAAACCATTTTTTGTACATAAAAATAGGTATTG [XGTACX_site1892] | 7.58 ± 0.5 |
| TATTATATTTATATTTGTACTTAAAATATTATACAC [XGTACX_site2881] | 7.83 ± 0.42 |
| AGTATACGCAAACACACACACACAAAAAAAAAAAAA [CACACA_site426] | 7.96 ± 0.58 |
| AAATAAGAAAATCATAGTACATAGGAATAGAAGAAC [XGTACX_site3135] | 8.75 ± 0.61 |
| AGAAAAATTATATATACACACTTATATTTATATATA [CACACA_site5555] | 7.58 ± 0.52 |
| TACGTTCTGATATATACACACCTGGTATTAATTATG [CACACA_site7113] | 7.96 ± 0.7 |
| TTAAAAAAAGAAAAAAAAAAAAAAAAAAAAAAACAT [CACACA_negctrl_site475] | 7.71 ± 0.52 |
| TATAAAAATATTTCTACACACATTAATATTTATATA [CACACA_site6661] | 7.77 ± 0.48 |

| Sequence | gcPBM binding intensity (ln) |
| --- | --- |
| TATTATATTCTGCTTACACACATATATATATATATA [CACACA_site3060] | 9.5 ± 0.37 |
| GTTCTAAATATTATTGCATGTTGCACGTTTCTCTGT [TGCATGCA_site159] | 9.52 ± 0.23 |
| GTGATAATTGCTTGGTGTACCCACATATATATATAT [XGTACX_site1636] | 9.32 ± 0.23 |
| AAAGAGAAATTTAAATGTACATTTGTTCTAAGTGTA [XGTACX_site3602] | 7.62 ± 0.56 |
| AATTATGAAAAATCAAGTACAAACAAAATCATAATT [XGTACX_site5665] | 7.99 ± 0.76 |
| AAAAGATATATTATATGTACTAATTATATGATAAAT [XGTACX_site4192] | 7.79 ± 0.43 |
| CATACACCCATACATACACACATACATATATATATA [CACACA_site8591] | 9.19 ± 0.38 |
| ATATAATGTTTCACATGTACAAACAACACAAAAAAA [XGTACX_site1899] | 8 ± 0.52 |
| CTTTAGTTTTTAATGTGTACTGAATTTGAATAGTAG [XGTACX_site7920] | 8 ± 0.13 |
| CGTATTATTTTATAAACACACAAGGGGGCATGTATA [CACACA_site6489] | 9.34 ± 0.099 |
| TTGATATGTACAGGCACACATAAATTTCACAAATAT [CACACA_site3999] | 8.09 ± 0.29 |
| CATAAATGTATATAAACATGCAAGGACAGACTTTTA [TGCATGCA_site900] | 7.71 ± 0.69 |
| ATATAATTAAAAACATGTACATATATATATATATAT [XGTACX_site2882] | 9.27 ± 0.2 |
| GTAAAAATACAAAAGGTGCTCAAACAATATAATACA | 9.675 ± 0.049 |
| TACATACAGATATATACACACATATATAATATATAT [CACACA_site4376] | 7.79 ± 0.42 |
| TACATACCTATATACACATGCATATTTACATATATT [TGCATGCA_site206] | 8.5 ± 0.88 |
| AAAATTAAATTATAAGCACACACATATATATATATA [CACACA_site9105] | 9.54 ± 0.35 |
| TATATAATATATATGACACACATATTTATATAAATA [CACACA_site4054] | 7.61 ± 0.36 |
| GAATATTAAACAAACACACACACATATATTTATATA [CACACA_site7563] | 7.66 ± 0.4 |

| Sequence | gcPBM binding intensity (ln) |
| --- | --- |
| AATGGATTGATAAGTGGTACACACATATATATTATA [XGTACX_site6086] | 7.91 ± 0.35 |
| TATTCTGGTGTAAATGCACACAGAAGAAGAAAAAAA [CACACA_site9225] | 9.53 ± 0.014 |
| AAGGACACCTTCAAAACACACATACAAATAAATAGA [CACACA_site5771] | 7.75 ± 0.52 |
| TTTTTTTTTTTTGTAATACACACCACTATATGTTAT [CACACA_site1844] | 8.15 ± 0.73 |
| AATAAATAAAAAAAAAAAAAAAAAAAAAAAAAAAAA [XGTACX_negctrl_site343] | 8.32 ± 0.93 |
| TTCTGTTGGAATATATGTACATAATAAAAAAAAATA [XGTACX_site1741] | 7.93 ± 0.37 |
| AGTTTTATAAAAATATGTACTTATATACACATGTAT [XGTACX_site4022] | 7.96 ± 0.4 |
| TATGGCAAAACATTCACACATATTTATATATGTGTA [CACACA_site5588] | 7.38 ± 0.42 |
| TGTAGTCTGGAGAAAAGTACACAGTATCTGGTAACA [XGTACX_site2010] | 7.86 ± 0.49 |
| TTATCTTAATTGTGATTATAAAGATATTCTTTCTAT [GTGCAC_negctrl_site410] | 7.17 ± 0.33 |
| CAACCTCATAATATTTAACACACAAAATTATATGTA [CACACA_site8496] | 7.66 ± 0.2 |
| CATTTAGAATAAGGCACACATAAAGAACACTTTCCA [CACACA_site130] | 9.62 ± 0.36 |
| ATACCAAATGAATAATGTACATACGAACATACATAT [XGTACX_site1301] | 7.84 ± 0.42 |
| ATATTTTTAACCAAGGACACAATTCTTGTATTGTTA [CACACA_negctrl_site1326] | 7.57 ± 0.62 |
| GTACATTGTAAGGATGGAAAAGCTAAACATTATAAT [XGTACX_negctrl_site339] | 7.93 ± 0.61 |
| TAAGTCGTTATAAGCACACACATAAATAAAAATAAA [CACACA_site1574] | 8.495 ± 0.035 |
| ATATATTTATATAGGTGTACATATTTTGCTATTCAA [XGTACX_site5199] | 7.95 ± 0.42 |
| TCAATTTTTTAATGTTGTACTTTGTAAAAAAAAATA [XGTACX_site8481] | 7.77 ± 0.28 |
| AAGGGTTATAAAAATTGTACTTTTTTTATTTTTTTT [XGTACX_site1313] | 7.72 ± 0.56 |
